In the supplement of paper PMC10037445:
± gives the standard deviation of the averaged measurements. Whole data set: some 2,900 compounds, median “NF-kB SEAP reporter activity, fold change vs agonist alone” near 0.99, cut for the highest 2% near 2.6. Some of the results follow.

What was measured:
[1] = system: RAW-Dual; test: NF-kB SEAP reporter activity, fold change vs agonist alone; cytotoxicity flag (confluency mask): not cytotoxic; higher = enhanced NF-kB activity
In short: (§1)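 Reporter activity is given as fold change relative to agonist-alone wells. To measure it, 50 nL of library stock was pin-tooled onto RAW-Dual macrophages (50,000 cells/well, DMEM, 384-well plates), a PRR agonist followed 1 h later, and cells stayed at 37 °C, 5% CO2. Twenty hours on, supernatant was assayed for IRF (QuantiLuc luminescence) and NF-κB (QuantiBlue, 620 nm absorbance), and wells under 70% of agonist-control IncuCyte confluency in both mask sets were marked cytotoxic.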

[2] = system: RAW-Dual; test: NF-kB SEAP reporter activity, fold change vs agonist alone; higher = enhanced NF-kB activity; settings: library stock concentration (final ~1000-fold dilution): 10 mM
In short: as §1

[3] = system: RAW-Dual; test: NF-kB SEAP reporter activity, fold change vs agonist alone; cytotoxicity flag (confluency mask): cytotoxic (confluency <70% of control); higher = enhanced NF-kB activity
In short: as §1

[4] = agonist: ODN 1826 (TLR9) 0.5 ug/mL
[5] = agonist: Pam2CSK4 (TLR2/6) 0.1 ug/mL
[6] = agonist: Pam3CSK4 (TLR2/1) 0.1 ug/mL
[7] = cytotoxicity flag (confluency mask): not cytotoxic, agonist: MPLA (TLR4) […]
[8] = cytotoxicity flag (confluency mask): cytotoxic (confluency <70% of control), agonist: MPLA (TLR4) […]
[9] = cytotoxicity flag (confluency mask): not cytotoxic, agonist: Imiquimod (TLR7) […]

## COc1cc(O)c(C(=O)Nc2nc(C(=O)NCCN(C(C)C)C(C)C)cs2)cc1OC (library stock concentration (final ~1000-fold dilution): 10 mM)
[1]; agonist: LPS (TLR4) 0.1 ug/mL
  NF-kB SEAP reporter activity: 0.987
[1]; [4]
  NF-kB SEAP reporter activity: 1.02
[1]; [5]
  NF-kB SEAP reporter activity: 0.952
[1]; [6]
  NF-kB SEAP reporter activity: 1.07

## COc1cc(O)c(C(=O)Nc2nc(C(=O)NCCN(C(C)C)C(C)C)cs2)cc1OC
[2]; [7]
  NF-kB SEAP reporter activity: 1.01

## Cc1cc(C)cc(C(=O)NOCCCCCC(=O)NO)c1
[2]; [8]
  NF-kB SEAP reporter activity: 2.74

## Cc1cc(C)cc(C(=O)NOCCCCCC(=O)NO)c1 (library stock concentration (final ~1000-fold dilution): 10 mM)
[3]; agonist: LPS (TLR4) 0.1 ug/mL
  NF-kB SEAP reporter activity: 5.28

## CC(NC(=O)c1ccccc1N=Cc1c(O)ccc2ccccc12)c1ccccc1 (stereo not given)
[2]; [9]
  NF-kB SEAP reporter activity: 1.56
[2]; [7]
  NF-kB SEAP reporter activity: 2.25

## CC(NC(=O)c1ccccc1N=Cc1c(O)ccc2ccccc12)c1ccccc1 (stereo not given) (library stock concentration (final ~1000-fold dilution): 10 mM)
[1]; agonist: LPS (TLR4) 0.1 ug/mL
  NF-kB SEAP reporter activity: 5.11
[1]; [4]
  NF-kB SEAP reporter activity: 1.72
[1]; [5]
  NF-kB SEAP reporter activity: 0.843
[1]; [6]
  NF-kB SEAP reporter activity: 1.53

## CC1=CC2(O)OC3(CC2=C(C)C)C(C)CCC13 (stereo not given) (library stock concentration (final ~1000-fold dilution): 10 mM)
[1]; agonist: LPS (TLR4) 0.1 ug/mL
  NF-kB SEAP reporter activity: 1.04 ± 0.043
[1]; [4]
  NF-kB SEAP reporter activity: 0.938 ± 0.07
[1]; [5]
  NF-kB SEAP reporter activity: 0.963 ± 0.062
[1]; [6]
  NF-kB SEAP reporter activity: 1.06 ± 0.049

## CC1=CC2(O)OC3(CC2=C(C)C)C(C)CCC13 (stereo not given)
[2]; [9]
  NF-kB SEAP reporter activity: 0.957 ± 0.03
[2]; [7]
  NF-kB SEAP reporter activity: 1.03 ± 0.025

## COc1cc(O)cc(O)c1C(=O)/C=C/c1ccccc1 (library stock concentration (final ~1000-fold dilution): 10 mM)
[3]; agonist: LPS (TLR4) 0.1 ug/mL
  NF-kB SEAP reporter activity: 0.394 ± 0.18
[3]; [4]
  NF-kB SEAP reporter activity: 0.569 ± 0.089
[3]; [5]
  NF-kB SEAP reporter activity: 1.03 ± 0.34
[3]; [6]
  NF-kB SEAP reporter activity: 0.635 ± 0.052

## COc1cc(O)cc(O)c1C(=O)/C=C/c1ccccc1
[2]; cytotoxicity flag (confluency mask): cytotoxic (confluency <70% of control), agonist: Imiquimod (TLR7) […]
  NF-kB SEAP reporter activity: 1.45 ± 0.2
[2]; [8]
  NF-kB SEAP reporter activity: 0.761 ± 0.14

## Cc1cnc(NC(=O)C2=C(O)c3ccccc3S(=O)(=O)N2C)s1 (library stock concentration (final ~1000-fold dilution): 10 mM)
[1]; agonist: LPS (TLR4) 0.1 ug/mL
  NF-kB SEAP reporter activity: 0.983
[1]; [4]
  NF-kB SEAP reporter activity: 0.981
[1]; [5]
  NF-kB SEAP reporter activity: 0.95
[1]; [6]
  NF-kB SEAP reporter activity: 0.918

## Cc1cnc(NC(=O)C2=C(O)c3ccccc3S(=O)(=O)N2C)s1
[2]; [9]
  NF-kB SEAP reporter activity: 0.892
[2]; [7]
  NF-kB SEAP reporter activity: 0.885

## CNCCC(Oc1cccc2ccccc12)c1cccs1 (stereo not given) (library stock concentration (final ~1000-fold dilution): 10 mM)
[3]; agonist: LPS (TLR4) 0.1 ug/mL
  NF-kB SEAP reporter activity: 1.1
[3]; [4]
  NF-kB SEAP reporter activity: 0.191
[3]; [5]
  NF-kB SEAP reporter activity: 0.797
[3]; [6]
  NF-kB SEAP reporter activity: 0.525

## CNCCC(Oc1cccc2ccccc12)c1cccs1 (stereo not given)
[2]; [8]
  NF-kB SEAP reporter activity: 1.98

## O=C(O)CCCc1ccccc1
[2]; [9]
  NF-kB SEAP reporter activity: 0.936
[2]; [7]
  NF-kB SEAP reporter activity: 1.08

## O=C(O)CCCc1ccccc1 (library stock concentration (final ~1000-fold dilution): 10 mM)
[1]; agonist: LPS (TLR4) 0.1 ug/mL
  NF-kB SEAP reporter activity: 0.948
[1]; [4]
  NF-kB SEAP reporter activity: 0.937
[1]; [5]
  NF-kB SEAP reporter activity: 1.1
[1]; [6]
  NF-kB SEAP reporter activity: 1.19

## CC1(C)OCCn2c1nc1c(N3CCOCC3)nc(-c3cnc(N)nc3)nc12 (library stock concentration (final ~1000-fold dilution): 10 mM)
[1]; agonist: LPS (TLR4) 0.1 ug/mL
  NF-kB SEAP reporter activity: 1.42
[1]; [4]
  NF-kB SEAP reporter activity: 0.768
[1]; [5]
  NF-kB SEAP reporter activity: 0.464
[1]; [6]
  NF-kB SEAP reporter activity: 0.544

## CC1(C)OCCn2c1nc1c(N3CCOCC3)nc(-c3cnc(N)nc3)nc12
[2]; [9]
  NF-kB SEAP reporter activity: 1.02
[2]; [7]
  NF-kB SEAP reporter activity: 1.07

## CS(=O)(=O)O.O=C(OC1CC2CC3CC(C1)N2CC3=O)c1c[nH]c2ccccc12 (stereo not given)
[2]; [9]
  NF-kB SEAP reporter activity: 0.712
[2]; [7]
  NF-kB SEAP reporter activity: 0.75
